# PubChem BioAssay AID540317 (National Center for Advancing Translational Sciences (NCATS), 2011)
# Screen size: about 390,000 compounds; about 2,200 (0.56%) were called active. The inconclusive results got no clear call from the source; some entries with a clear call stand among them for comparison. The call rests on the fitted dose curve; in most records, active means well fitted inhibition curve with a large enough effect; inconclusive means small, poorly fitted or top-dose-only effect; inactive means no such curve, though single readings can be large or run the other way. Potencies of inconclusive entries are doubtful fits and often do not repeat.
# Target: Chromobox protein homolog 1 (Homo sapiens) (UniProt P83916)
# Chain of UniProt P83916 (P83916 whole entry, looked up): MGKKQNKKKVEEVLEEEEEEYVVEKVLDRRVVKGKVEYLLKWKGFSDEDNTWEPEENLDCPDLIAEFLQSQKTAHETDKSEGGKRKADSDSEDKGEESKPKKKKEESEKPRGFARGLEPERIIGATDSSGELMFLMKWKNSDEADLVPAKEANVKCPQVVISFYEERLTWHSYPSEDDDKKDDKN
# Assay: HTS for Inhibitors of HP1-beta Chromodomain Interactions with Methylated Histone Tails; further: nearly all actives have a fitted effect of over 70% in size
# Conditions: AlphaScreen HP1-beta / biotin-H3K9me3 peptide binding; series mostly up to 114 µM; activity change, negative = inhibition: at the top concentration
# Outline: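 HP1-beta protein (50 nM final) preincubated 30 min at room temperature with biotinylated H3(1-18)K9me3 peptide (50 nM) in PBS pH 7.4, 0.01% Tween-20, then compound added for 30 min. AlphaScreen streptavidin donor/nickel chelate acceptor beads (10 ug/mL final), 30 min dark, luminescence read.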
# Potency means the concentration at half of the fitted maximal effect; tags describe the fitted curve by direction and shape.
Structure (SMILES),"activity change, negative = inhibition",Potency
Cc1cc(C(=O)N/N=C/c2cccn2C)no1,inactive: 7.73%,
O=C(COC(=O)CCC(=O)c1cccs1)Nc1cccc(S(=O)(=O)N2CCOCC2)c1,,"inconclusive: 39.8 µM [inhibitor, partial curve, poor fit]"
Cc1ccc(C(=O)NCC(=O)NCc2ccccc2F)s1,inactive: 23.4% [at 57 µM],
COc1ccc(C(CCNCc2ccc(N(C)C)cc2)C(C)C)cc1 (centres undefined),,"inconclusive: 12.6 µM [inhibitor, full curve]"
O=C(N/N=C/c1cccc2ccccc12)c1cc(C2CC2)[nH]n1,inactive: 35.9%,
N#C/C(=C(/O)CSc1ccccn1)c1nc2ccccc2s1,inactive: 43.5%,
Cc1c(Cl)cccc1NC(=O)Cn1cnc2nc3c(cc2c1=O)CCCC3,inactive: 25.8% [at 57 µM],
Cc1ccc2c(c1)cc1c(=O)n(CC(=O)N3CCCCC3)nc(C)n12,inactive: 21.9%,
O=C(/C=C\c1ccccc1)Nc1ccc(NC(=O)c2ccco2)cc1,,"inconclusive: 5.62 µM [inhibitor, full curve, poor fit]"
Cc1c(C(=O)N/N=C/c2ccc(Cl)cc2)[nH]c2ccc(Cl)cc12,inactive: 32.9%,
CCCCN(C)C(=O)c1nc2ccccn2c1CN1CCN(c2cnccn2)CC1,inactive: 18.9%,
Nc1ccc(-c2nnc(-c3ccc(-c4ccccc4)cc3)o2)cc1,,"inconclusive: 35.5 µM [inhibitor, partial curve, poor fit]"
CC(C)C(=O)NC(=S)Nc1ccc(S(=O)(=O)N2CCCC2)cc1,inactive: 17.9%,
O=C1C(Cl)=C(NCc2ccco2)C(=O)c2ccccc21,,active: 50.1 µM
CC[n+]1c(-c2ccc(C)cc2)csc1Nc1c(C)n(C)n(-c2ccccc2)c1=O,,"inconclusive: 39.8 µM [inhibitor, partial curve]"
Cc1ccc(N=Nc2c(N)nn(-c3ccccc3)c2N)cc1,,"inconclusive: 56.2 µM [inhibitor, single point]"
CC(=O)c1ccc(OCCCN2CCCCC2)cc1,,"inconclusive: 15.8 µM [inhibitor, full curve, poor fit]"
CC(C)NC(=S)n1cc(C(=O)c2cc(Cl)cc(Cl)c2O)cn1,inactive: -22%,
CCOC(=O)Cn1c(CCC(=O)O)ccc1-c1ccc(F)cc1,inactive: -7.86%,
CC1(C)CCN2CCC(C)(C)c3c(O)ccc1c32,,"inconclusive: 25.1 µM [inhibitor, full curve]"
CNC(=S)N(Cc1cc2cc(OC)c(OC)cc2[nH]c1=O)C1CCCC1,inactive: 27.1%,
CCC(C)NCCOc1ccc(Br)cc1 (centres undefined),,"inconclusive: 56.2 µM [inhibitor, partial curve]"
CC(C)(C)c1cc(CN2CCCC(O)C2)c(O)c(C(C)(C)C)c1 (centres undefined),inactive: 8.95%,
CCOC(=O)C1CCN(Cc2ccc(F)c(F)c2)CC1,,"inconclusive: 50.1 µM [inhibitor, partial curve]"
Cc1ccc(NC(=O)c2ccc(NCCc3ccccc3)c([N+](=O)[O-])c2)cc1F,inactive: 25.8%,

Structure (SMILES),"activity change, negative = inhibition",Potency
Cc1ccc(NC(=S)/C(=C(\[O-])c2ccc(Cl)s2)[n+]2cccc(CO)c2)cc1C,,"inconclusive: 50.1 µM [inhibitor, partial curve, poor fit]"
Cc1ccccc1NC(=O)CN1C(=O)S/C(=C\c2ccc(-c3cc(C(=O)O)ccc3C)o2)C1=O,,active: 39.8 µM
COc1ccc(-c2ccc(CCC(=O)O)n2CC(=O)Nc2ccccc2C)cc1,,"inconclusive: 89.1 µM [inhibitor, single point]"
CC1=C(C(=O)Nc2ccccc2)C(c2cccs2)C(C#N)=C(SCC#N)N1 (centres undefined),,"inconclusive: 79.4 µM [inhibitor, partial curve, poor fit]"
CCSc1nnc(NC(=O)NC(CC)(C(F)(F)F)C(F)(F)F)s1,inactive: 33.6%,
C#CCOCCOCCOCCNc1nc(N2CCN(C(=O)Cn3cc(CC(C)O)nn3)CC2)nc(N2CCN(C(=O)Cn3cc(CC(C)O)nn3)CC2)n1 (centres undefined),inactive: 30.4%,
CC(C)Nc1nc(NC(C)C)nc(OCCOC(=O)c2ccccc2)n1,inactive: 41.2%,
C/C(=N\Nc1nc2ccccc2[nH]1)c1cc2ccccc2o1,,"inconclusive: 70.8 µM [inhibitor, partial curve]"
Cc1nc([N+](=O)[O-])cn1CC(=O)Nc1ccc([N+](=O)[O-])cc1,inactive: 25.2%,
CCC(C)c1ccc(S(=O)(=O)N2CCN(CC(O)COCC3CCCO3)CC2)cc1 (centres undefined),,"inconclusive: 15.8 µM [inhibitor, full curve]"
Oc1ccc(NC(=S)N=Nc2c(O)[nH]c3ccccc23)cc1,,"inconclusive: 39.8 µM [inhibitor, partial curve]"
Cc1cccc(N2CCc3c2nc2ccc(Br)cc2c3N)c1,inactive: 29.5%,
OC(CNCc1ccc(Cl)cc1)COc1ccccc1 (centres undefined),,"inconclusive: 17.8 µM [inhibitor, partial curve, poor fit]"
O=C(NC(=S)Nc1ccc(Cc2ccncc2)cc1)c1ccc(F)cc1,inactive: -11.9%,
COc1ccc(NC(=S)NC(=NS(=O)(=O)c2ccc(Cl)cc2)c2ccccc2)cc1,,"inconclusive: 25.1 µM [inhibitor, single point]"
COCCCN(CC(=O)Nc1ccc(N2CCOCC2)cc1)S(=O)(=O)c1ccc(Cl)cc1,,"inconclusive: 89.1 µM [inhibitor, single point]"
Cc1ccc(S(=O)(=O)CCC(=O)c2cccc([N+](=O)[O-])c2)cc1,,active: 44.7 µM
CN(C)c1ccc(C2(c3ccc(N(C)C)cc3)OC(=O)c3cc(N)ccc32)cc1,,active: 15.8 µM
COc1ccc(/C=N/n2c(COc3ccccc3)n[nH]c2=S)cc1OC,,"inconclusive: 56.2 µM [inhibitor, single point]"
CCN(CC)CCc1c(C)[nH]c(C(=O)OCc2ccccc2)c1C,inactive: -12.8%,
CC1CCCC(=NNc2ccc3ccccc3n2)C1 (centres undefined),,"inconclusive: 79.4 µM [inhibitor, single point]"
COc1cc(NC(=S)Nc2cccnc2)cc(OC)c1,inactive: -16.2%,
CN(CC(=O)Nc1ccc(N2CCOCC2)cc1)CC(=O)Nc1ccc(Cl)cc1[N+](=O)[O-],,"inconclusive: 70.8 µM [inhibitor, partial curve]"
Cc1ccc(CN2CCN(Cc3ccco3)CC2)cc1,,"inconclusive: 15.8 µM [inhibitor, partial curve, poor fit]"
